Assay results from patent US8648074B2, “Substituted octahydropyrrolo[1,2-a]pyrazine sulfonamides as calcium channel blockers” (AbbVie Inc., priority 2011, dated 2014).

molecular target: human Cav2.2 (Homo sapiens, UniProt Q00975); assay: In vitro assessment of calcium channel activity using FLIPR (Ca2+ influx in IMR32 cells); type: cell-based; conditions: IMR32 cells endogenously expressing human Cav2.2; Calcium 4 dye, 60 minute pre-incubation, 2 μM nifedipine, depolarized with 80 mM KCl; average of at least two runs unless marked *

| Structure (SMILES) | IC50 [nM] |
| --- | --- |
| Cc1ccccc1S(=O)(=O)N1CCN2C[C@H](Oc3cnc(C4CC4)cn3)C[C@H]2C1 [Example 158, (7R,8aS)-7-[(5-cyclopropylpyrazin-2-yl)oxy]-2-[(2-methylphenyl)-sulfonyl]octahydropyrrolo[1,2-a]pyrazine] | 2580 |
| N#Cc1cccc(S(=O)(=O)N2CCN3C[C@H](Oc4cnc(C5CC5)cn4)C[C@H]3C2)c1 [Example 159, 3-{[(7R,8aS)-7-[(5-cyclopropylpyrazin-2-yl)oxy]hexahydropyrrolo[1,2-a]-pyrazin-2(1H)-yl]sulfonyl}benzonitrile] | 4680 |
| COc1ccc(OC)c(S(=O)(=O)N2CCN3C[C@H](Oc4cnc(C5CC5)cn4)C[C@H]3C2)c1 [Example 160, (7R,8aS)-7-[(5-cyclopropylpyrazin-2-yl)oxy]-2-[(2,5-dimethoxyphenyl)-sulfonyl]octahydropyrrolo[1,2-a]pyrazine] | 7080 |
| CN1C(=O)Cc2cc(S(=O)(=O)N3CCN4C[C@H](Oc5cnc(C6CC6)cn5)C[C@H]4C3)ccc21 [Example 163, 5-{[(7R,8aS)-7-[(5-cyclopropylpyrazin-2-yl)oxy]hexahydropyrrolo[1,2-a]-pyrazin-2(1H)-yl]sulfonyl}-1-methyl-1,3-dihydro-2H-indol-2-one] | 16700 |
| CCn1cc(S(=O)(=O)N2CCN3C[C@H](Oc4cnc(C5CC5)cn4)C[C@H]3C2)cn1 [Example 165, (7R,8aS)-7-[(5-cyclopropylpyrazin-2-yl)oxy]-2-[(1-ethyl-1H-pyrazol-4-yl)-sulfonyl]octahydropyrrolo[1,2-a]pyrazine] | 16400 |
| O=S(=O)(c1ccc(C(F)(F)F)cc1)N1CCN2C[C@H](Oc3ccnc(C4CC4)n3)C[C@H]2C1 [Example 167, (7R,8aS)-7-[(2-cyclopropylpyrimidin-4-yl)oxy]-2-{[4-(trifluoromethyl)-phenyl]sulfonyl}octahydropyrrolo[1,2-a]pyrazine] | 4370 |
| COc1ccc(S(=O)(=O)N2CCN3C[C@H](Oc4cnc(C5CC5)cn4)C[C@H]3C2)cc1C [Example 170, (7R,8aS)-7-[(5-cyclopropylpyrazin-2-yl)oxy]-2-[(4-methoxy-3-methylphenyl)sulfonyl]octahydropyrrolo[1,2-a]pyrazine] | 2640 |
| O=S(=O)(c1ccc(Cl)c(C(F)(F)F)c1)N1CCN2C[C@H](Oc3cnc(C4CC4)cn3)C[C@H]2C1 [Example 171, (7R,8aS)-2-{[4-chloro-3-(trifluoromethyl)phenyl]sulfonyl}-7-[(5-cyclopropylpyrazin-2-yl)oxy]octahydropyaolo[1,2-a]pyrazine] | 5740 |
| COc1ccc(C(F)(F)F)cc1S(=O)(=O)N1CCN2C[C@H](Oc3cnc(C4CC4)cn3)C[C@H]2C1 [Example 173, (7R,8aS)-7-[(5-cyclopropylpyrazin-2-yl)oxy]-2-{[2-methoxy-5-(trifluoromethyl)phenyl]sulfonyl}octahydropyrrolo[1,2-a]pyrazine] | > 30000 |
| O=S(=O)(c1cc(C(F)(F)F)ccc1N1CCOCC1)N1CCN2C[C@H](Oc3cnc(C4CC4)cn3)C[C@H]2C1 [Example 178, (7R,8aS)-7-[(5-cyclopropylpyrazin-2-yl)oxy]-2-{[2-(morpholin-4-yl)-5-(trifluoromethyl)phenyl]sulfonyl}octahydropyrrolo[1,2-a]pyrazine] | 3020 |
| N#Cc1cc(S(=O)(=O)N2CCN3C[C@H](Oc4cnc(C5CC5)cn4)C[C@H]3C2)ccc1F [Example 181, 5-{[(7R,8aS)-7-[(5-cyclopropylpyrazin-2-yl)oxy]hexahydropyrrolo[1,2-a]-pyrazin-2(1H)-yl]sulfonyl}-2-fluorobenzonitrile] | > 30000 |
| Cc1nn(C(C)C)cc1S(=O)(=O)N1CCN2C[C@H](Oc3cnc(C4CC4)cn3)C[C@H]2C1 [Example 183, (7R,8aS)-7-[(5-cyclopropylpyrazin-2-yl)oxy]-2-[(1-isopropyl-3-methyl-1H-pyrazol-4-yl)sulfonyl]octahydropyrrolo[1,2-a]pyrazine] | 4300 |
| O=S(=O)(CCC(F)(F)F)N1CCN2C[C@H](Oc3cnc(C4CC4)cn3)C[C@H]2C1 [Example 189, (7R,8aS)-7-[(5-cyclopropylpyrazin-2-yl)oxy]-2-[(3,3,3-trifluoropropyl)-sulfonyl]octahydropyrrolo[1,2-a]pyrazine] | > 30000 |

The next compounds have a lower IC50 than those just listed; values first:

| IC50 [nM] | Structure (SMILES) |
| --- | --- |
| 1910 | O=S(=O)(c1ccc2ccccc2c1)N1CCN2C[C@H](Oc3cnc(C4CC4)cn3)C[C@H]2C1 [Example 156, (7R,8aS)-7-[(5-cyclopropylpyrazin-2-yl)oxy]-2-(2-naphthylsulfonyl)-octahydropyrrolo[1,2-a]pyrazine] |
| 1910 | CCc1ccc(S(=O)(=O)N2CCN3C[C@H](Oc4cnc(C5CC5)cn4)C[C@H]3C2)s1 [Example 164, (7R,8aS)-7-[(5-cyclopropylpyrazin-2-yl)oxy]-2-[(5-ethyl-2-thienyl)sulfonyl]-octahydropyrrolo[1,2-a]pyrazine] |
| 1710 | O=S(=O)(c1ccc(F)c(Cl)c1)N1CCN2C[C@H](Oc3cnc(C4CC4)cn3)C[C@H]2C1 [Example 161, (7R,8aS)-2-[(3-chloro-4-fluorophenyl)sulfonyl]-7-[(5-cyclopropylpyrazin-2-yl)oxy]octahydropyrrolo[1,2-a]pyrazine] |
| 1640 | COCc1cccc(S(=O)(=O)N2CCN3C[C@H](Oc4cnc(C5CC5)cn4)C[C@H]3C2)c1 [Example 179, (7R,8aS)-7-[(5-cyclopropylpyrazin-2-yl)oxy]-2-{[3-(methoxymethyl)-phenyl]sulfonyl}octahydropyrrolo[1,2-a]pyrazine] |
| 1640 | Cc1ccc(C#N)c(S(=O)(=O)N2CCN3C[C@H](Oc4cnc(C5CC5)cn4)C[C@H]3C2)c1 [Example 182, 2-{[(7R,8aS)-7-[(5-cyclopropylpyrazin-2-yl)oxy]hexahydropyrrolo[1,2-a]-pyrazin-2(1H)-yl]sulfonyl}-4-methylbenzonitrile] |
| 1520 | O=S(=O)(c1ccc2c(c1)CCC2)N1CCN2C[C@H](Oc3cnc(C4CC4)cn3)C[C@H]2C1 [Example 174, (7R,8aS)-7-[(5-cyclopropylpyrazin-2-yl)oxy]-2-(2,3-dihydro-1H-inden-5-yl-sulfonyl)octahydropyrrolo[1,2-a]pyrazine] |
| 1360 | CCCc1ccc(S(=O)(=O)N2CCN3C[C@H](Oc4cnc(C5CC5)cn4)C[C@H]3C2)cc1 [Example 157, (7R,8aS)-7-[(5-cyclopropylpyrazin-2-yl)oxy]-2-[(4-propylphenyl)-sulfonyl]octahydropyrrolo[1,2-a]pyrazine] |
| 1330 | Cc1ccc(S(=O)(=O)N2CCN3C[C@H](Oc4cnc(C5CC5)cn4)C[C@H]3C2)cc1C [Example 175, (7R,8aS)-7-[(5-cyclopropylpyrazin-2-yl)oxy]-2-[(3,4-dimethylphenyl)-sulfonyl]octahydropyrrolo[1,2-a]pyrazine] |
| 1330 | Cn1nccc1-c1cccc(S(=O)(=O)N2CCN3C[C@H](Oc4cnc(C5CC5)cn4)C[C@H]3C2)c1 [Example 176, (7R,8aS)-7-[(5-cyclopropylpyrazin-2-yl)oxy]-2-{[3-(1-methyl-1H-pyrazol-5-yl)phenyl]sulfonyl}octahydropyrrolo[1,2-a]pyrazine] |
| 1290 | CC(C)c1cnc(O[C@@H]2C[C@H]3CN(S(=O)(=O)c4ccc(C(F)(F)F)cc4)CCN3C2)cn1 [Example 162, (7R,8aS)-7-[(5-isopropylpyrazin-2-yl)oxy]-2-{[4-(trifluoromethyl)-phenyl]sulfonyl}octahydropyrrolo[1,2-a]pyrazine] |
| 1210 | O=S(=O)(c1cc(C(F)(F)F)ccc1Cl)N1CCN2C[C@H](Oc3cnc(C4CC4)cn3)C[C@H]2C1 [Example 172, (7R,8aS)-2-{[2-chloro-5-(trifluoromethyl)phenyl]sulfonyl}-7-[(5-cyclopropylpyrazin-2-yl)oxy]octahydropyaolo[1,2-a]pyrazine] |
| 1140 | O=S(=O)(c1ccc2c(c1)CCCC2)N1CCN2C[C@H](Oc3cnc(C4CC4)cn3)C[C@H]2C1 [Example 169, (7R,8aS)-7-[(5-cyclopropylpyrazin-2-yl)oxy]-2-(5,6,7,8-tetrahydronaphthalen-2-ylsulfonyl)octahydropyrrolo[1,2-a]pyrazine] |
| 1120 | O=S(=O)(c1cccc(C(F)(F)F)c1)N1CCN2C[C@H](Oc3ccnc(C4CC4)n3)C[C@H]2C1 [Example 166, (7R,8aS)-7-[(2-cyclopropylpyrimidin-4-yl)oxy]-2-{[3-(trifluoromethyl)-phenyl]sulfonyl}octahydropyrrolo[1,2-a]pyrazine] |
| 1040 | O=S(=O)(c1cccc2ccccc12)N1CCN2C[C@H](Oc3cnc(C4CC4)cn3)C[C@H]2C1 [Example 155, (7R,8aS)-7-[(5-cyclopropylpyrazin-2-yl)oxy]-2-(1-naphthylsulfonyl)-octahydropyrrolo[1,2-a]pyrazine] |
| 950 | Cc1nc(C(F)(F)F)ccc1S(=O)(=O)N1CCN2C[C@H](Oc3cnc(C4CC4)cn3)C[C@H]2C1 [Example 177, (7R,8aS)-7-[(5-cyclopropylpyrazin-2-yl)oxy]-2-{[2-methyl-6-(trifluoromethyl)pyridin-3-yl]sulfonyl}octahydropyrrolo[1,2-a]pyrazine] |
| 760 | N#Cc1ccc(C(F)(F)F)cc1S(=O)(=O)N1CCN2C[C@H](Oc3cnc(C4CC4)cn3)C[C@H]2C1 [Example 201, 2-{[(7R,8aS)-7-[(5-cyclopropylpyrazin-2-yl)oxy]hexahydropyrrolo[1,2-a]-pyrazin-2(1H)-yl]sulfonyl}-4-(trifluoromethyl)benzonitrile] |
| 740 | Cc1ccc(C(C)(C)C)cc1S(=O)(=O)N1CCN2C[C@H](Oc3cnc(C4CC4)cn3)C[C@H]2C1 [Example 168, (7R,8aS)-2-[(5-tert-butyl-2-methylphenyl)sulfonyl]-7-[(5-cyclopropylpyrazin-2-yl)oxy]octahydropyrrolo[1,2-a]pyrazine] |
| 500 | Cc1ccc(S(=O)(=O)N2CCN3C[C@H](Oc4cnc(C5CC5)cn4)C[C@H]3C2)cc1C(F)(F)F [Example 180, (7R,8aS)-7-[(5-cyclopropylpyrazin-2-yl)oxy]-2-{[4-methyl-3-(trifluoromethyl)phenyl]sulfonyl}octahydropyrrolo[1,2-a]pyrazine] |
